Screen size: about 200,000 compounds; about 10 (0.005%) were called active. This list was built around the results that the source calls inconclusive (neither active nor inactive); the mix of calls is not that of the screen. Calls follow the shape of the dose curve; as a rule, active = well fitted inhibition curve with a large enough effect; inconclusive = small, poorly fitted or top-dose-only effect, or effect the other way, or another doubt; inactive = no such curve, though single readings can be large or run the other way. A potency beside an inconclusive call is a rough fit, not a confirmed value.
The compounds below were run against Lysosomal alpha-glucosidase (Homo sapiens) (UniProt P10253) (assay: qHTS Assay for Inhibitors of Human alpha-Glucosidase as a Potential Chaperone Treatment of Pompe Disease). Conditions: purified human GAA, 4-MU-alpha-glucoside fluorescence; activity change, negative = inhibition: at 76.9 µM (top of the series) unless noted.
From the text: NIH Chemical Genomics Center [NCGC] NIH Molecular Libraries Probe Production centers Network [MLPCN] MLPCN Grant: 1R03MH084841-01 Assay Submitter (PI): Wei Zheng NCGC Assay Overview: Alpha-glucosidase is responsible for hydrolysis of terminal, non-reducing 1,4-linked alpha-D-glucose residues with release of alpha-D-glucose. It is a lysosomal hydrolase that is required for the degradation of a small percentage (1-3%) of cellular glycogen in human. Deficiency of this enzyme results in glycogen-storage disease type II (GSDII), also referred to as Pompe disease, an autosomal recessive disorder. Structurally normal glycogen is accumulated in lysosomes and cytoplasm in affected patients, primarily in muscle tissues. Excessive glycogen storage within lysosomes may interrupt normal functioning of other organelles and leads to cellular injury. In turn, this leads to enlargement and dysfunction of the entire organ involved (eg, cardiomyopathy and muscle weakness). It has reported that the improper folding and trafficking of alpha-glucosidase resulting from the genetic mutations may account for a significant number of Pompe patients. […] We optimized this alpha-glucosidase assay in 1536-well plate format for identifying the novel small molecule inhibitors with the structures other than the sugar analogs in order to develop the new pharmacological chaperones.
NCGC Assay Protocol Summary: This is a fluorogenic enzyme assay with 4-methylumbelliferyl-alpha-D-[…] as the substrate and human alpha-glucosidase as the enzyme preparation. Upon the hydrolysis of this fluorogenic substrate, the resulting product, 1. 4-methyllumbelliferone, can be excited at 365 nm and emits at 440 nm which can be detected by a standard fluorescence plate reader. Data were normalized to the controls for basal activity (without enzyme) and 100% activity (with enzyme). In the AC50 values were determined from concentration-response data modeled with the standard Hill equation. Assay buffer: 50 mM citric acid (titrated with potassium phosphate to pH 5.0), 0.005% Tween-20, pH 5.0. (pH 5.0 is an optimal condition for this enzyme assay) 1536-well assay protocol for the human alpha-glucosidase: (1) Add 2 ul/well of enzyme (4 nM final) (2) Add 23 nL compounds in DMSO solution. The final titration was 0.7 nM to 77 uM. (3) Add 1 ul of substrate (400 uM final) (4) Incubate at room temperature for 20 min. (5) Add 2 ul stop solution (1M NaOH and 1M Glycine mixture, pH 10) (6) Detect the assay plate in a ViewLux plate reader (PerkinElmer) with Ex=365 nm and Em=440nm. Keywords: Alpha-glucosidase, Pompe Disease, pharmacological chaperone, chaperone therapy, high throughput screening, alpha-glucosidase inhibitor, MLSMR, MLSCN, NIH Roadmap, qHTS and NCGC
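For activity change, negative = inhibition in this document: plate controls were uninhibited enzyme wells for no effect and no-enzyme background for full effect.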
Potency is read from the fitted curve at half-maximal effect; tags tell the direction and shape of the fitted curve.

SMILES | Potency | activity change, negative = inhibition
COc1ccc(OC)c(NC(=O)[C@H]2CC=CC[C@H]2C(=O)O)c1 | inconclusive: 28.2 µM [inhibitor, single point] | –
CC1(C)CC(=O)C(C=NCC(O)c2ccccc2)=C(O)C1 (stereo unspecified) | inconclusive: 56.2 µM [inhibitor, single point] | –
CCC(C)(C)NC(=O)CN(Cc1ccc2c(c1)OCO2)C(=O)CCC(=O)Nc1nccs1 | – | inconclusive: -15.8% [inhibitor]
N#C/C(=C\c1ccc(O)c(O)c1)S(=O)(=O)c1ccccc1 | inactive | –
Cc1ccc(S(=O)(=O)N2CCN(C(=O)C3Cc4ccccc4CN3C(=O)c3ccco3)CC2)cc1 (stereo unspecified) | inconclusive: 20 µM [inhibitor, partial curve] | –
CCN1C(c2ccccc2)C(C)C(=O)C(C)C1c1ccccc1 (stereo unspecified) | – | inconclusive: -17.1% [inhibitor]
COc1ccc(C(C(=O)NC2CCCCC2)N(C(=O)Cc2c[nH]c3ccccc23)c2ccccc2C)cc1OC (stereo unspecified) | – | inconclusive: -16.4% [inhibitor]
COC(=O)c1c(NC(=S)Nc2ccc(CC(=O)O)cc2)sc(C)c1C | inconclusive: 44.7 µM [inhibitor, single point] | –
COc1ccc2cc(/C=N/NC(=O)c3ccc(CN(c4ccc(C)c(C)c4)S(C)(=O)=O)cc3)c(Cl)nc2c1 | inconclusive: 25.1 µM [activator, single point] | –
NC(=O)c1nn(-c2cccc(Cl)c2)c(=O)cc1O | inconclusive: 6.31 µM [activator, partial curve, poor fit] | –
CC(C)(C)NC(=O)CN(c1cccc([N+](=O)[O-])c1)S(=O)(=O)c1ccccc1 | – | inconclusive: 15.7% [activator]
C=CCN(c1ccc(Cl)cc1)S(=O)(=O)c1cccc(C(=O)OCC(=O)N(C)C)c1 | inconclusive: 50.1 µM [inhibitor, single point] | –
C/C=C(\C)CN1CCCC(CO)(Cc2ccccc2)C1 (stereo unspecified) | inconclusive: 31.6 µM [inhibitor, partial curve] | –
OCCCCNc1cccc2ccccc12 | inconclusive: 50.1 µM [activator, single point] | –
CC(C)c1ccc(C(=O)N/N=C/c2cccc(Cl)c2Cl)cc1 | – | inconclusive: -20% [inhibitor]
CCC(C)NCCC(=O)Nc1ccc(Cl)c(S(=O)(=O)Nc2ccc(Cl)cc2)c1 (stereo unspecified) | inconclusive: 39.8 µM [inhibitor, single point] | –
Cn1c2c(c(=O)[nH]c1=O)C(c1ccc(O)cc1)C1=C(N2)c2ccccc2C1=O (stereo unspecified) | – | inconclusive: -9.39% [inhibitor] [at 15.4 µM]
O=S(=O)(c1ccccc1)N(CC(O)Cn1c2ccccc2c2ccccc21)c1ccccc1 (stereo unspecified) | inconclusive: 14.1 µM [inhibitor, partial curve, poor fit] | –
CC1=C(C(=O)Nc2ccccc2)C(c2ccccc2[N+](=O)[O-])NC(=O)N1 (stereo unspecified) | inactive | –
CCN(C(=O)c1cnc(NC(C)C)cc1C(F)(F)F)c1ccc(Cl)cc1Cl | – | inconclusive: -15.7% [inhibitor]
COc1cc(CCC(=O)OCC(=O)Nc2ccccc2OC(F)F)cc(OC)c1OC | inconclusive: 11.2 µM [inhibitor, single point] | –

SMILES | Potency | activity change, negative = inhibition
NC(=O)NC(c1ccccc1)c1ccccc1F (stereo unspecified) | inconclusive: 50.1 µM [inhibitor, single point] | –
CCOC(=O)CN1C(=O)C(O)(CC(=O)c2ccc3c(c2)CCCC3)c2ccccc21 (stereo unspecified) | inconclusive: 7.94 µM [inhibitor, full curve] | –
Oc1ccc2ccccc2c1C=Nc1ccc(Cl)cn1 | inactive | –
O=C(O)CCCCCN1C(=O)C(=O)/C(=C(/O)c2ccccc2)C1c1ccccc1 (stereo unspecified) | inconclusive: 0.178 µM [inhibitor, full curve, poor fit] | –
O=C(COC(=O)c1ccccn1)Nc1cccc2ccccc12 | inactive | –
Cc1ccc(OCC(=O)NCCc2c[nH]c3ccccc23)cc1 | inconclusive: 11.2 µM [inhibitor, single point] | –
Cc1oc2cc(OCC(=O)O)ccc2c(=O)c1Oc1ccccc1 | inconclusive: 12.6 µM [inhibitor, single point] | –
Cc1oc(-c2cccc(Cl)c2)nc1CN1CCC(C(=O)NCc2ccco2)CC1 | inconclusive: 56.2 µM [inhibitor, single point] | –
O=c1[nH]c2c(s1)C(c1ccccc1)C1C3CCC(C3)C1S2 (stereo unspecified) | inconclusive: 50.1 µM [inhibitor, single point] | –
Cn1cccc1/C=C1\SC(=S)N(NC(=O)c2ccccc2Cl)C1=O | inconclusive: 50.1 µM [inhibitor, single point] | –
Cc1cc(C)c(S(=O)(=O)NCc2ccc3c(c2)cc(C)n3C)c(C)c1 | inconclusive: 56.2 µM [inhibitor, single point] | –
CN(C)CCCNc1nc2sc3c(c2c(=O)n1CCc1ccccc1)CCCCC3 | inconclusive: 31.6 µM [inhibitor, single point] | –
CC(CCc1ccccc1)NC(=O)CN1CCN(c2ccc(O)cc2)CC1 (stereo unspecified) | inconclusive: 50.1 µM [inhibitor, single point] | –
O=C(N/N=C/c1ccccc1OC(=O)c1ccc2c(c1)OCO2)c1ccccc1 | inconclusive: 44.7 µM [inhibitor, single point] | –
CCOC(=O)CNC(=O)CSc1ncnc2c1cnn2-c1ccc(OC)cc1 | inconclusive: 5.62 µM [activator, partial curve, poor fit] | –
COc1ccc(Cn2c(C)nnc2-c2cnn(C)c2N)cc1 | inactive | –
CCOc1cc(NC(=S)NCC2CCCO2)c(OCC)cc1NC(=O)C1CC1 (stereo unspecified) | inconclusive: 0.316 µM [inhibitor, full curve, poor fit] | –
CCn1c(O)c(C#N)c(C)cc1=O | inactive | –
Cc1cccc(C(=O)NC(NCCc2ccccc2)C(Cl)(Cl)Cl)c1 (stereo unspecified) | inconclusive: 11.2 µM [inhibitor, partial curve, poor fit] | –
COc1ccc(N=C2SC(CC(=O)Nc3cccc(Cl)c3)C(=O)N2Cc2ccco2)cc1 (stereo unspecified) | inconclusive: 0.178 µM [inhibitor, full curve, poor fit] | –

Source: PubChem BioAssay AID1466 (National Center for Advancing Translational Sciences (NCATS), 2008)
